The record followed here is patent publication EP4810497A1, “ISOQUINOLINE DERIVATIVE, SYNTHESIS METHOD THEREFOR, AND USE THEREOF” (Harbin Gloria Pharmaceuticals Co., Ltd., priority 2023, dated 2025).

In the assay the test system is SH-SKN cell lines. Particulars: 10 µM; for activity of enhancing mitochondrial respiration: Table 2.

Regarding `Nc1nc(N2CCN(C(=O)[C@H]3CCCO3)CC2)cc2cc3c(cc12)OCCO3` [Compound T10], the “activity of enhancing mitochondrial respiration” value (“activity” for short) is “no activity of activating mitochondrion”.

For `Nc1nc(N2CCN(C(=O)c3ccco3)CC2)cc2cc3c(cc12)OCO3` [Compound T11], the “activity” value is “no activity of activating mitochondrion”.

Regarding `COc1cc2nc(N3CCN(C(=O)C4CCCO4)CC3)nc(N)c2cc1OC` (centres unmarked) [Terazosin, terazosin, reference compound], the “activity” value was “exhibited the activity of enhancing mitochondrial respiration”.

As to `Nc1nc(N2CCN(C(=O)[C@H]3CCCO3)CC2)cc2cc3c(cc12)OCC3` [Compound T6], where the note is “normal cells (control)”, the basal respiratory rate result is listed as “activated” and the maximum respiratory rate result is listed as “activated”.
